Data as given in paper PMC6043480.
Results are given in words; binding and its absence hold for the method and conditions named. For part of these data: Binding seen in cells or lysates may run through a third protein. Some binding calls cover weakened binding; strength is not graded here.

Sequences of proteins named here, by UniProt entry; tags and fusion partners are left off. A change or cut given only in a name is not applied to a line headed by its entry.
UniProt Q12888: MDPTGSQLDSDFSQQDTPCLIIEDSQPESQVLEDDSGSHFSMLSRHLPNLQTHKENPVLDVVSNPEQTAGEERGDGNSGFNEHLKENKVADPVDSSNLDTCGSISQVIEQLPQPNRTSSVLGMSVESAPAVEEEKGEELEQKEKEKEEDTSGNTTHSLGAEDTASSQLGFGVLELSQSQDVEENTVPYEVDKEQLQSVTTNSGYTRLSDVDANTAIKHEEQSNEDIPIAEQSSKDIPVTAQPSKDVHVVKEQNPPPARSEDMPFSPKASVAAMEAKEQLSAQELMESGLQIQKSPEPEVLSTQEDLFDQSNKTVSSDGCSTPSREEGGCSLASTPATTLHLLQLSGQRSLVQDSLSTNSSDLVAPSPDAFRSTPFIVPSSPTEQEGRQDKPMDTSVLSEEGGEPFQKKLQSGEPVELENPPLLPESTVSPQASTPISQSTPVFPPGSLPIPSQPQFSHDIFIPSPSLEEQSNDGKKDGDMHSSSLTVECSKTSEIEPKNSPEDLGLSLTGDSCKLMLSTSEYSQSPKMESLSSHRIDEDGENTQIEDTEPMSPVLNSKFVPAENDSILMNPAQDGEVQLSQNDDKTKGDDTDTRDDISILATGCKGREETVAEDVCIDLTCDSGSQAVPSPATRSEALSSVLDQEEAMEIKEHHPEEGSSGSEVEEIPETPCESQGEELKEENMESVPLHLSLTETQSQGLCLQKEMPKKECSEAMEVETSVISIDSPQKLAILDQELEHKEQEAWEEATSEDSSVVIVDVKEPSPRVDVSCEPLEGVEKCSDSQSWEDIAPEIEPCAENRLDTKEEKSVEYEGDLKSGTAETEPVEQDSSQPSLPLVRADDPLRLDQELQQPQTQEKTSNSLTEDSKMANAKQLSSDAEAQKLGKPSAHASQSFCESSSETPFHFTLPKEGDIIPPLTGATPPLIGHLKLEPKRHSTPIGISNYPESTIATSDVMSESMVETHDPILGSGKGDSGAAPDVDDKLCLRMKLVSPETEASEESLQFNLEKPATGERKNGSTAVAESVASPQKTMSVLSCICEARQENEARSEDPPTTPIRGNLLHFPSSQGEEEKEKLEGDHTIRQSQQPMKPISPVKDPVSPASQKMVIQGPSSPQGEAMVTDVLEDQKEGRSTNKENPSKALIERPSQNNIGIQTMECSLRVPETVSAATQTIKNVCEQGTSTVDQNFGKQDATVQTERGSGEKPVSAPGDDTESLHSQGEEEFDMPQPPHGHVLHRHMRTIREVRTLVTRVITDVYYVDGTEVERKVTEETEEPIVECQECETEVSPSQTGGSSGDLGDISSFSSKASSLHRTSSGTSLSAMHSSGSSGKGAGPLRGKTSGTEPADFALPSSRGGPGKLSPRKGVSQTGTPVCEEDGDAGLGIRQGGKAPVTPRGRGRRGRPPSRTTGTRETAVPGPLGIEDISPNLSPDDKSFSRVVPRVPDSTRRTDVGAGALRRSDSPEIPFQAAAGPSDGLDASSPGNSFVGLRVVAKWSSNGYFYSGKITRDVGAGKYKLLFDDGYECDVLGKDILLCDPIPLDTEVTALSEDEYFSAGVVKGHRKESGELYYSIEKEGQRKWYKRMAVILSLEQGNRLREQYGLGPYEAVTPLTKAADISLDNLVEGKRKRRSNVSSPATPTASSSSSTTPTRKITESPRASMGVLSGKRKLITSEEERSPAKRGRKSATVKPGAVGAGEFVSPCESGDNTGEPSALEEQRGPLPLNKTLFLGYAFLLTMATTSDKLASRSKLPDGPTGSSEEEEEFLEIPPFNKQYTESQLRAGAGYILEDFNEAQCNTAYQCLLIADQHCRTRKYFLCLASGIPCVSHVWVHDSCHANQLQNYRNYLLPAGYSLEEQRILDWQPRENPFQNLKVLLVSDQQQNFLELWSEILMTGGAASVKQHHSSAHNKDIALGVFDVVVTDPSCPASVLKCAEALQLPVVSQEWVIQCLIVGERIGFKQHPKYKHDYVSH
UniProt Q96DE0: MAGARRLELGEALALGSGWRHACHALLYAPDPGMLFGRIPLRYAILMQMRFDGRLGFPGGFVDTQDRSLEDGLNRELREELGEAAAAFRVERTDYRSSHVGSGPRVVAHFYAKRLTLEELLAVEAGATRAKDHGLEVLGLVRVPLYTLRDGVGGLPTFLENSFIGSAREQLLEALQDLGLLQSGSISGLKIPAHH
UniProt Q9BRJ7: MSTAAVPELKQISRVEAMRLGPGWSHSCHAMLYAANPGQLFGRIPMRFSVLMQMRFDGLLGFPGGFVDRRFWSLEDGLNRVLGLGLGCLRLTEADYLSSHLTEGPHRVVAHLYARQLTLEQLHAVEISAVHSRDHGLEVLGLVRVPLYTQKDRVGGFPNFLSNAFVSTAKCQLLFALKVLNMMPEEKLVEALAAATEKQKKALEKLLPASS

Columns and labels:
[1] = target: 53BP1 tandem Tudor domain (residues 1459-1634) (human) (UniProt Q12888); assay: AUC; sedimentation velocity, 60,000 rpm, 20 °C, 10 mM Tris-HCl pH 8.0, 200 mM NaCl, 3 mM DTT; TIRR 53 μM, TTD 35 μM, mixture 20 μM TIRR with 20 μM TTD; both purified
[2] = target: NUDT16 (in-vitro pull-down assays) (UniProt Q96DE0); assay: pull-down; in vitro pull-down screening of TIRR dimer-interface mutants, TIRR homodimer or TIRR/NUDT16 heterodimer (Supplementary Fig. 9a, e, f); who was held not shown; both purified
[3] = target: 53BP1 expressed in 293T cells (human) (UniProt Q12888); assay: co-IP; TIRR or its mutants and 53BP1 expressed in 293T cells; lysis in NETN-300, streptavidin sepharose beads 2 h 4 °C, NETN-100 washes; western blot
[4] = target: NUDT16 (co-IP) (UniProt Q96DE0); assay: co-IP; TIRR with NUDT16 (Supplementary Fig. 8); cells and tags not shown

| Substance | binding [3] | other results |
| --- | --- | --- |
| 53BP1 tandem Tudor domain (residues 1459-1634) (from UniProt Q12888 1459-1634) (domain or fragment) |  | binding [1]: no binding (tested: 35 μM) |
| His-TIRR (from UniProt Q9BRJ7 6-211) (domain or fragment) |  | binding [2]: binds |

Continued, in another order:

| binding [3] | Substance | other results |
| --- | --- | --- |
| no binding | TIRR H106A expressed in 293T cells (from UniProt Q9BRJ7 1-211) |  |
| no binding | TIRR R107A expressed in 293T cells (from UniProt Q9BRJ7 1-211) |  |
| binds | TIRR expressed in 293T cells (from UniProt Q9BRJ7 1-211) | binding [4]: binds |
